# Laboratory results taken from PubChem BioAssay AID1259418 (Broad Institute, 2018).
# Values joined by “and” are separate entries in the source; they are usually repeats but may differ in a detail not shown here. Equal values may be shown once. The whole screen tested about 3,400 compounds, of which about 840 (25%) were called active. Inconclusive results, whose numbers are uncertain, are shown with a selection of clear calls.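 Rule for the calls: active = fitted half-maximal concentration of signal decrease at or below twice the sample's top tested concentration; inconclusive = flat curve between -70 and -30 percent, or poor fit; inactive = flat within 30 percent, signal rise, or potency above limit.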
# Experiment: T. gondii growth inhibition with IFN-gamma, dose response, cell-based, ME49Luc, HeLa, luciferase, 72 h (AID 1259418)
# Conditions: T. gondii ME49Luc in IFN-y HeLa, stronger effect = lower value, -100% = high-dose IFN-γ control wells
smiles,measurement,setting,value
CCCC(Nc1nc(-c2cccnc2)nc2c1cnn2C)c1cccs1 (stereo not given),max activity,at 19.5 µM unless noted,inconclusive: -15.1% [at 2.6 µM]
Cc1ccc(-c2coc(-c3ccc(NC(=O)Nc4ccc(C)c(C)c4)cc3)n2)cc1,max activity,at 19.5 µM unless noted,inactive: 12% [at 2.6 µM]
O=c1oc(-c2ccc(C(F)(F)F)cc2)nn1Cc1cc(Cl)ccc1O,max activity,at 19.5 µM unless noted,inconclusive: 46.5%
CC(C)NC(=O)N1CC(=O)N2[C@H](C1)[C@H](c1ccc(/C=C/c3ccccc3)cc1)[C@@H]2CO,max activity,at 19.5 µM unless noted,inconclusive: -64.1% [at 10 µM]
N#CCSC1=Nc2ccccc2C2=NC(CC(=O)NCc3ccco3)C(=O)N12 (stereo not given),max activity,at 19.5 µM unless noted,inconclusive: 49.6% [at 5 µM]
CCN1C(=O)CO[C@H]2CN(C(=O)c3cnc4ccccc4c3)C[C@@H]21,max activity,at 19.5 µM unless noted,inconclusive: -41.3%
N#CCSC1=Nc2ccccc2C2=NC(CCC(=O)NCc3ccc(F)cc3)C(=O)N12 (stereo not given),max activity,at 19.5 µM unless noted,inactive: 22.5% [at 0.35 µM]
CCOc1ccc(-c2nc(CN3CCc4c(sc5c4CCCC5)C3c3ccccc3)c(C)o2)cc1 (stereo not given),max activity,at 19.5 µM unless noted,inconclusive: -45.6% [at 0.35 µM]
COc1ccc(S(=O)(=O)N2CCCCN3[C@H](CO)[C@H](c4ccc(C#CCC(C)C)cc4)[C@H]3C2)cc1,max activity,at 19.5 µM unless noted,inconclusive: -121%
COc1cccc(-c2nc3c(s2)CN(C(=O)Nc2ccc(C)cc2C)CC3)c1,max activity,at 19.5 µM unless noted,inconclusive: 13%
Cc1ccc(-c2csc(-c3cccn3CC(=O)N3CCC(C)CC3)n2)cc1,max activity,at 19.5 µM unless noted,inconclusive: -52.2% [at 0.35 µM]
CC(=O)NCc1nnn2c1CN(c1ncccn1)CCC2,max activity,at 19.5 µM unless noted,inconclusive: 30.9%
Cc1ccc(S(=O)(=O)N2CCC(C(=O)NCCc3csc(-c4ccccc4)n3)CC2)cc1C,max activity,at 19.5 µM unless noted,inactive: 12.1% [at 1.35 µM]
COc1ccc(-c2nc(NCCN3CCCc4ccccc43)c3ccccc3n2)cc1,max activity,at 19.5 µM unless noted,inconclusive: 47.8% [at 10 µM]
COc1ccc(-c2nc3c(s2)CN(S(=O)(=O)c2ccc(NC(C)=O)cc2)CC3)cc1,max activity,at 19.5 µM unless noted,inactive: 17.2% [at 10 µM]
O=S1(=O)c2ccccc2C2(CCN(CC3CC3)C2)N1Cc1ccc(F)cc1 (stereo not given),max activity,at 19.5 µM unless noted,inconclusive: 15.6% [at 10 µM]
COc1ccc(-c2nc(Nc3cc(C)cc(C)c3)c3ccccc3n2)cc1,max activity,at 19.5 µM unless noted,inactive: -19.1% [at 0.35 µM]
CCC(=O)N1CCC2(CC1)Nc1cc(F)ccc1-n1cccc12,max activity,at 19.5 µM unless noted,inactive: 8.79% [at 0.68 µM]
CCOc1ccc(N(Cc2nc(-c3ccccc3)oc2C)S(=O)(=O)c2cccs2)cc1,max activity,at 19.5 µM unless noted,inconclusive: -84.2% [at 5 µM]
COc1ccc(-c2nc(N3CCN(c4ccccc4F)CC3)c3ccccc3n2)cc1,max activity,at 19.5 µM unless noted,inactive: -17% [at 0.35 µM]
COc1ccccc1-c1ccc(C2[C@@H]3CN(Cc4cccc(F)c4)C[C@H]2N3)cc1 (stereo not given in full),max activity,at 19.5 µM unless noted,inconclusive: -36.1% [at 0.3 µM]
Cc1ccc(S(=O)(=O)N2CCC3(CC2)NCCN=C3NCc2cc(F)cc(F)c2)c(C)c1,max activity,at 19.5 µM unless noted,inconclusive: -51.7%
COc1ccc(CN2CCc3nc(SCc4nc(-c5ccccc5)oc4C)[nH]c(=O)c3C2)cc1,max activity,at 19.5 µM unless noted,inactive: -18.7% [at 2.6 µM]
COc1ccc(N(Cc2nc(-c3cccc(C)c3)oc2C)S(=O)(=O)c2cccs2)cc1,max activity,at 19.5 µM unless noted,inconclusive: -84% [at 5 µM]
COc1cccc(-c2nc(C)c(-c3ccc(SCc4ccccc4C)nn3)s2)c1,max activity,at 19.5 µM unless noted,inconclusive: -62.6%
CC(C)NC(=O)N1CC[C@@H]2[C@H]1c1cc(-c3ccc(F)cc3)ccc1N(C)[C@@H]2CO,max activity,at 19.5 µM unless noted,inconclusive: -38.6%
Cc1nc(CCNC(=O)C2CCN(S(=O)(=O)c3cnn(C(F)F)c3C)CC2)cs1,max activity,at 19.5 µM unless noted,inactive: 8.74% [at 0.68 µM]
C[C@@H]1CN([C@H](C)CO)C(=O)c2cccc(NC(=O)c3ccc(-c4nccs4)cc3)c2O[C@@H]1CN(C)C(=O)Nc1ccc(C(F)(F)F)cc1,max activity,at 19.5 µM unless noted,inconclusive: -45.8%
C=CC[C@@H]1CC=C[C@@H](C)N1C(=O)CCn1c(C)cc(C)nc1=O,max activity,at 19.5 µM unless noted,inconclusive: 24.2%
COc1cccc(-c2nc(C)c(-c3ccc(SCc4ccncc4)nn3)s2)c1,max activity,at 19.5 µM unless noted,inconclusive: -57.9%
N#Cc1ccc(-c2ccc3c(c2)[C@@H]2[C@@H](CCN2C(=O)C2CCCCC2)[C@H](CO)N3)cc1,max activity,at 19.5 µM unless noted,inconclusive: 17.3% [at 5 µM]
O=C(Cc1ccccc1)N1CC(=O)N2[C@H](C1)[C@@H](c1ccc(-c3ccc(F)cc3)cc1)[C@@H]2CO,max activity,at 19.5 µM unless noted,inconclusive: 6.57% [at 5 µM]
CCOc1ccc(-c2nc3c(s2)CN(C(=O)Nc2cc(C)ccc2C)CC3)cc1,max activity,at 19.5 µM unless noted,inconclusive: -53% and inconclusive: 102%
O=C(Nc1ccc(F)cc1)N1CC(=O)N2[C@H](CO)[C@@H](c3ccc(-c4cccc(F)c4)cc3)[C@H]2C1,max activity,at 19.5 µM unless noted,inconclusive: -42.9%
Cc1nc(CCNC(=O)C2CCN(S(=O)(=O)c3cccc(Cl)c3C)CC2)cs1,max activity,at 19.5 µM unless noted,inactive: -10.4% [at 5 µM]
O=C(Nc1ccccc1F)N1C[C@@H]2N[C@H](C1)C2c1ccc(/C=C/c2ccccc2)cc1 (stereo not given in full),max activity,at 0.3 µM,inconclusive: 346%
same,max activity,at 5 µM,inconclusive: 329%
Fc1ccc(CSc2nc(NCc3ccc(Cl)cc3)c3ccccc3n2)cc1,max activity,at 19.5 µM unless noted,inconclusive: 20.5% [at 10 µM]
Clc1cccc(CNc2ncnc3c2cnn3-c2ccccc2)c1,max activity,at 19.5 µM unless noted,inactive: 95.5% [at 10 µM]
CN1C(=O)CCc2cc(NC(=O)Cc3c(F)cccc3Cl)ccc21,max activity,at 19.5 µM unless noted,inactive: -7.19% [at 5 µM]
COc1cccc(-c2nc(C)c(-c3ccc(SCCN4CCOCC4)nn3)s2)c1,max activity,at 19.5 µM unless noted,inconclusive: 286% [at 1.35 µM]
COCCN1CC2(CCOCC2)c2cc(NC(=O)C3CCC3)ccc21,max activity,at 19.5 µM unless noted,inconclusive: -21.6% [at 0.16 µM]
CC(C)c1ccc(S(=O)(=O)N2CCC3(CC2)NCCN=C3NCc2cc(F)cc(F)c2)cc1,max activity,at 19.5 µM unless noted,inconclusive: -40.9%
Cc1ccc(NC(=O)c2cc(-c3cnc(-c4ccccc4)nc3)cn2CC2CC2)cn1,max activity,at 19.5 µM unless noted,inconclusive: 46.2%
CCc1ccc2c(c1)cc(S(=O)(=O)c1ccccc1)c(=O)n2CC(=O)NC(C)C,max activity,at 19.5 µM unless noted,inconclusive: -49.7% [at 0.16 µM]
